Variants at the floor of the assay are shown more often than the library holds them.
B1: TPR 5TU (parent)
chain: GGAUCUUCUCGAUCUAACAAAAAAGACAAAUCUGCCACAAAGCUUGAGAGCAUCUUCGGAUGCAGAGGCGGCAGCCUUCGGUGGCGCGAUAGCGCCAACGUUCUCAACUAUGACACGCAAAACGCGUGCUCCGUUGAAUGGAGUUUAUCAUG

Variants of: B1
Experiment: polymerase ribozyme fitness, log enrichment relative to wild type (log ratio); higher = more active; in vitro selection for triplet polymerase activity
Procedure, shortened: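 The heterodimeric triplet polymerase ribozyme's subunits were each mutagenized into PCR-built libraries and transcribed. Every library was selected once, in triplicate, by annealing with a biotinylated primer, the partner subunit and triplets, incubating frozen at −7 °C, gel-excising extended constructs, capturing on streptavidin beads and running RT-PCR. Input and output libraries were Illumina-sequenced, with genotypes kept only at ≥10 input reads and ≥1 read per output. Fitness, from inverse-variance-weighted replicate averages, is the base-2 logarithm of genotype enrichment over wild-type enrichment.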

Polymerase ribozyme fitness (log ratio), -0.911:
G46A G83A

Polymerase ribozyme fitness (log ratio), -3.85:
G46C G48A A73U U77C G80U C87U

Polymerase ribozyme fitness (log ratio), -0.687:
G46A A52C U61G

Polymerase ribozyme fitness (log ratio), 0.917:
G46A G59U

Polymerase ribozyme fitness (log ratio), -3.11:
G46A C54A G94C G117A A122U G124A

Polymerase ribozyme fitness (log ratio), 0.0159:
G46A C96U

Polymerase ribozyme fitness (log ratio), ≤ -4.2:
U45G U82A C95A C123G A150G
U45G U109G
G46A A47C G50C C79G U109G G141C
G46A A47U A52G C54A G100C U139A U144G
G46A A47U A73U G86C G88A A106G
G46A A49C A91G
G46A A49G G86A G88A C116U U135C
G46A A49U G62U G84C A97G U109G
G46A A52G C54G G58C A91U A122C
G46A A52G C76G C87U U104G G126U
G46A A52G C99G A138C C149U
G46A A52G G86U A91G A98U C114G
G46A A60U G83C G84U C96U G124U U134G U148G
G46A A73G C87G A122U
G46A A91C A120C A138U
G46A C51U U53A G74C G83U C103G G140A U145G
G46A C54A C69G G94C
G46A C57A G59U C63U A66C
G46A C57G U61G G86C C87A C114U C116U G141U
G46A C75G C76G A97C A98G G128U
G46A C85A C87U C99A
G46A C85U A89G C96A A106C U145C U146G
G46A C87G C93U U130G G133C
G46A C96A A107G
G46A C96G U102G
G46A C96U U134G A138G
G46A G48C U61G C95G A120C
G46A G50C A52C C69A
G46A G59U A73U G86C
G46A G65C C85U A89G U109G A138U G141A
G46A G68C G84A G133C
G46A G83U A89U U102G
G46A G88U A97U U104C A106G G141A
G46A G92A C99G A107G
G46A G94C C116G G141A
G46A U53A C75G G133U
G46A U53A U55A U56A U61A G88U
G46A U55A C63U U111C C125A
G46A U55A C129A U139G U146C
G46A U55A U78A A91U G133U
G46A U55C G59C U78G C96U
G46A U55G C85U A98C C114U A142U
G46A U77A A98G A110G A122U G126A
G46A U77A C85G G136U
G46A U77A U82C A91U A106U
G46A U78A G88C C96U C108A C116G G133U U144A
G46A U90G G94A G100U A115G A121U
G46C A47C A52G G74A C85U C96U G152U
G46C A47G C95U C131A G141C U146A
G46C A47G G50C G71C C123U G141A U148C
G46C A52G G65U C69U U90C A142G
G46C A60C C85A G88A A106C A107U G117A G128U U135A U148A
G46C A60G A73C C87A
G46C A60U G70A G94U G140U A150G
G46C A64C G71A C93G A147G
G46C A66U U82A C93U G141A
G46C C51G A52U U78G C93G
G46C C51U U55A C57U C76A C87U C93A C129G
G46C C54A G74C C114U A121G
G46C C54A G86A C93U C118A C129U
G46C C57U U61G C75G A119U G141A
G46C C63A A91G A107U
G46C C69G C85A C129A
G46C C75A G92A C116A
G46C C75G G84A C131A U144A
G46C C87A G100C A106C C116A
G46C C108U
G46C G50C G59U C118U G126C
G46C G59C G81A U90G G94C U146A
G46C G67A
G46C G70A C95U G141A
G46C G81A A107C
G46C G88C C118G G126U
G46C G94U C103G C105G G140C
G46C U53A C57G C95G
G46C U53A G58A G94C C95U
G46C U53A G92U U111G U134C
G46C U55A C96A U104C A106C C114U U148C

— the RNAGym collection of RNA variant scans (doi:10.1073/pnas.2313332121)
